Measured values published in the supplement of paper PMC3334620.
Over roughly 33,000 sequences, “E-score (-0.5 to 0.5)” has its median near -0.053; the highest 2% begin near 0.37. The list shows a part of the results.

molecular target: Hap1 (UniProt P0CE41); test: PBM E-score (8-mer binding enrichment) (E-score (-0.5 to 0.5)); higher = stronger / more preferred TF binding; most listed sequences are background and not binding sites; details: protein concentration: 200 nM; construct: GST-DNA-binding domain
Summary of the method: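 Full-length yeast transcription factors or their DNA-binding domains, GST-tagged and expressed with PURExpress, were applied at about 100-200 nM to universal all-10-mer Agilent arrays. These arrays had been made double-stranded by primer extension on fresh or once-stripped slides. Detection used fluorescent anti-GST, normalisation used masliner, and E-scores for ungapped eight-base words pooled with reverse complements came from the Universal PBM Analysis Suite.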

UniProt P0CE41, sequence (P0CE41 whole entry, the tested form may be a part): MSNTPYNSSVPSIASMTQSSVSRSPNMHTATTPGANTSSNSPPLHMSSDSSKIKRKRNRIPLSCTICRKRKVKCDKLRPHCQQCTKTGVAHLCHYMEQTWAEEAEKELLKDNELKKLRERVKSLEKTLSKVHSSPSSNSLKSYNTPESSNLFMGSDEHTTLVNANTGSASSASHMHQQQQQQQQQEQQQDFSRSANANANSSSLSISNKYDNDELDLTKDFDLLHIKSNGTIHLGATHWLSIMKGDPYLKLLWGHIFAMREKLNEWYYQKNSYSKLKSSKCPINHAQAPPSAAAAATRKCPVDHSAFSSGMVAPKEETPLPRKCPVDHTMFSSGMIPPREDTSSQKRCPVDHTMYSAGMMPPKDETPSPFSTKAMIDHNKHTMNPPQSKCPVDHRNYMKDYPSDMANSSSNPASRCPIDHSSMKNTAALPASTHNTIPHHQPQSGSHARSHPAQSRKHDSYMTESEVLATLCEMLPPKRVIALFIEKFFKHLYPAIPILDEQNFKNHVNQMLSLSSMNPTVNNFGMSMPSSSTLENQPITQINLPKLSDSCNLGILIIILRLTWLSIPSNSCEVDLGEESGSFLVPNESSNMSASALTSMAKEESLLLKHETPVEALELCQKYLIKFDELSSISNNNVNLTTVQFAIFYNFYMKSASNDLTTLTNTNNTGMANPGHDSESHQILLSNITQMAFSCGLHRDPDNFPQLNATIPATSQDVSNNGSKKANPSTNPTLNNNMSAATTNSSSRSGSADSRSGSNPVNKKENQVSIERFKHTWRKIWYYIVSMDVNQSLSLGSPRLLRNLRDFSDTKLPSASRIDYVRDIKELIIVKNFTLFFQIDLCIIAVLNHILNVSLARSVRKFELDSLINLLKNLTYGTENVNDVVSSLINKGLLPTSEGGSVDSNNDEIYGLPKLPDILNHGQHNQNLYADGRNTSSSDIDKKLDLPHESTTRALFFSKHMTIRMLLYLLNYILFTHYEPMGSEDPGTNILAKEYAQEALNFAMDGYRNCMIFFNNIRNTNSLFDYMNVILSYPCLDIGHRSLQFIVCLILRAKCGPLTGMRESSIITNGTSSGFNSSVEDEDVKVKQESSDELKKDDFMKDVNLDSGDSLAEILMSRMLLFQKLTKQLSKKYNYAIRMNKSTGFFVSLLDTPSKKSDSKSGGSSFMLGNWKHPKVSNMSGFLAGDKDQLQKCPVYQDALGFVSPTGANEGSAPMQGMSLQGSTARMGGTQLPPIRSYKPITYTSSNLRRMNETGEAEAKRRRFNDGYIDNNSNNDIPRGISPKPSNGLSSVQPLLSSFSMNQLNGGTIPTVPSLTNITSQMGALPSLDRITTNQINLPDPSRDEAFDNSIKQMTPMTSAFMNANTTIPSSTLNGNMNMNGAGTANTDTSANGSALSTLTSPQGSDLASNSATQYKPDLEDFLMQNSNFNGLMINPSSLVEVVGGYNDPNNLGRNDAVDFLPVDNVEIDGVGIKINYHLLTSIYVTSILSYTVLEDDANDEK

Sequence | PBM E-score
TAACTGGA | -0.142
GCCGTGCA | -0.0218
AACTTTTA | -0.016
CCTCGTAC | 0.103
ATGAGTAC | -0.0327
CCTAGGTC | -0.142
CTGTCAAG | -0.157
GCTTTACC | 0.091
CCTCAAAA | -0.0303
CTGACAAG | -0.122
GGAACCCC | 0.144
ACATCACA | -0.117
GCGTCAGA | -0.112
GCCGATTA | 0.299
AACTACTA | 0.019
CCAGGCCC | -0.0511
ATTGCCCC | -0.0427
CCTACTAC | -0.117
TCAATCGA | -0.0573
ATCCCAAA | -0.0223
CAGAGTGG | -0.211
AGAAACAG | -0.108
AGACGCCT | -0.202
CATTAGGG | -0.211
AAAGTAGT | -0.148

Sequence | PBM E-score
GATTACCA | -0.0392
ACGTAGTG | -0.114
ACTAGACT | -0.206
AGTGTCAA | -0.295
CAGATATC | 0.199
ACAAAGTC | -0.116
ACGGTGCC | 0.0742
CCGCTGAC | 0.112
AGTGAAAA | 0.0463
ACCTAGGT | -0.105
CCCGCACG | 0.135
GAATCACC | -0.0956
GTATCGCA | 0.0745
CGGGACCG | 0.341
AATAAGCC | 0.149
ACTGGTCT | 0.0361
CGCAGTTA | 0.256
CCGCCTGA | 0.102
ATGAGCAT | -0.0227
CAGGTTTA | -0.0176
ATGAGAAA | -0.147
TAAGACGA | -0.227
AGCGATGA | 0.064
GCCTGAAA | 0.0421
GCGCACCC | 0.0489

Sequence | PBM E-score
ACACACGG | 0.0536
AACCGACC | 0.135
ATGCTGAG | -0.281
CAACGCAG | -0.111
GAATAACC | 0.0699
ACCCTTTC | -0.0409
ACAGACGC | -0.0711
GCCTCGTA | -0.0814
GAACGTGA | 0.0153
CACCTGCA | -0.165
GTAGCCGA | 0.129
CATGCTAA | -0.285
GACGCTCC | 0.0274
CGTCGGAG | 0.313
GGGCGCCC | 0.354
CACGTCTC | 0.0507
ATAAACCG | 0.26
CTAATGCA | -0.269
GAGGGGCA | -0.17
GGAAGGTA | -0.0638
GAGTAACC | 0.13
AGTGCTAT | -0.276
CAATGAGG | -0.259
CAATAGGC | -0.118
CTGTATGC | -0.0753

Sequence | PBM E-score
GAAAGATC | 0.111
GGGGGGAA | 0.0101
AGAGAAAC | -0.136
CCAATGCA | -0.186
GTAAACGA | -0.0548
GTGACTGA | -0.323
AACCGGCC | 0.344
GCGAGAAA | 0.116
TAACGTCA | -0.178
CTGGGGCA | -0.306
AGAACCCC | -0.0703
AAGGCGCA | 0.0887
CCACCTCG | 0.155
ACTGCCTA | -0.375
AAAAGTAA | -0.0896
CACGACGG | -0.0484
CCGAAAGG | 0.324
CGATAGCC | 0.208
AGGTGAAT | 0.104
ACATCCAG | -0.19
TGTATGAA | 0.0113
GGGATTCA | 0.0681
AACTTCAT | -0.147
CCTGTTCG | -0.0675
CTCGTATA | -0.115

Sequence | PBM E-score
ACGCTTTG | 0.0213
GCTATCCC | 0.0803
CAGCCTAG | -0.192
AGGACCAG | -0.0263
ATCACGAG | -0.25
AAGCAAAT | -0.24
AGCGTAAG | -0.00114
ATTGAACG | -0.214
ATCGTTGC | -0.103
CTGGTAAA | -0.073
ACTGGCGC | -0.133
CCCTTCTA | -0.239
GGCACAGA | 0.032
AGCCGCCT | 0.023
CGCGGACG | 0.296
ACTCTGAT | -0.106
AGCCCCCG | 0.185
ACAAGATA | -0.194
CGCCAACG | 0.0387
GGACGGAA | 0.26
GCAGCGAC | -0.0343
GGTTGCCA | -0.0357
ATGACTAC | -0.225
CTAAGCGA | -0.0284
CCAGTAAG | -0.203

Sequence | PBM E-score
GCGCAGCA | -0.114
GCTCCTAC | -0.0888
CATGTCGC | -0.0804
AGCTAGGC | 0.00311
ACGTCCCA | -0.184
ACTGCGAA | -0.249
AGGGTAGA | -0.191
GGTACGGA | 0.157
CCACTGTC | -0.176
AGTTAAAG | -0.218
CGCTTCTA | 0.0227
TGCTAGCA | -0.176
GCACACTA | -0.0548
AAGTGCGA | 0.00701
CCGCCTTC | -0.00226
GCGTTTAA | 0.183
CCCGAAGG | 0.219
AGAACGCG | 0.113
CCAGGAAA | -0.104
CGCGCGAA | 0.196
ACCATCTG | -0.102
CCTTCCTA | -0.383
GACGGCGA | 0.0437
ACATTCCG | 0.243
AACGAAGT | -0.253

Sequence | PBM E-score
AAGCGAAA | 0.0588
ACCGTGGC | -0.0125
ATGATGAC | -0.0975
AATCAAAG | -0.129
AACACATG | -0.264
CTCAGCAA | -0.163
CAGGGCTA | -0.258
AGTCTATA | -0.309
AATTAAAG | -0.0509
CACTCAAA | -0.197
CGGGCAGA | 0.231
AGAAGACG | -0.112
GAACAACA | -0.155
CAGTGCGG | 0.122
CTTTCTAC | -0.196
CTAAACTC | 0.112
TCATTACA | -0.105
ATTACATA | -0.266
AGATTACT | -0.0847
GCGGTGTA | -0.063
AGATACCT | -0.0612
CTAGAAAG | -0.0821
